In all, about 410,000 compounds went through this assay and about 6,400 (1.6%) were called active. This list was built around the results that the source calls inconclusive (neither active nor inactive); the mix of calls is not that of the screen. Calls follow the shape of the dose curve; as a rule, active = well fitted inhibition curve with a large enough effect; inconclusive = small, poorly fitted or top-dose-only effect; inactive = no such curve, though single readings can be large or run the other way. No potency is given beside an inconclusive call; the fits are too rough.
What follows are compounds tested against Glucagon-like peptide 1 receptor (Homo sapiens) (UniProt P43220) (assay: qHTS of GLP-1 Receptor Inverse Agonists (Inhibition Mode)). Conditions: HEK293 GLP-1R CRE-luciferase, luminescence, 24 h, GLP-1R form is constitutively active; series mostly up to 38.3 µM.
Outline: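 Assay principle: reduced luminescence from a cAMP-responsive reporter in HEK293 cells co-expressing a constitutively active GLP-1R. Conditions: 24 hr compound incubation, 37 deg C, 5% CO2.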
Also: nearly all actives have a fitted effect of over 55% in size.
Potency is read from the fitted curve at half-maximal effect; tags tell the direction and shape of the fitted curve.

UniProt P43220, sequence (P43220 whole entry, looked up): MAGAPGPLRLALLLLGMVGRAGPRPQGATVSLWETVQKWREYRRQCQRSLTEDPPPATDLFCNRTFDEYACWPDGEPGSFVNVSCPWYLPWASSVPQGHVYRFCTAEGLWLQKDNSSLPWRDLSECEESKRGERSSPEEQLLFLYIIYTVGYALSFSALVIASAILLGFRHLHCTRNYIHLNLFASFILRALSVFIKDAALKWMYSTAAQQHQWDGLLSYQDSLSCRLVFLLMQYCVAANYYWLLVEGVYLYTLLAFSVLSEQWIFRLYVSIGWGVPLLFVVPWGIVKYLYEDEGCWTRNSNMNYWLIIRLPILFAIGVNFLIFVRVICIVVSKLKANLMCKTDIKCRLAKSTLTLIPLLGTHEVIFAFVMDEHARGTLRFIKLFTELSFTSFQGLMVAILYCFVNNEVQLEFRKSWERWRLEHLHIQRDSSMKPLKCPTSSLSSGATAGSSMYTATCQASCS

For `O=C(/C=N/O)Nc1ccc2sc3ccccc3c2c1`, which Potency is on record?
Its Potency is “inactive”.

For `COC(=O)c1sc2ccccc2c1-n1cccc1C(=O)C(=O)Nc1ccccc1`, which Potency is on record?
Its Potency is inconclusive [inhibitor, single point].

`C/C(=N\OC(=O)c1ccc(OC(C)C)cc1)c1ccc(C)c(C)c1` was tested. Which Potency did it give?
Its Potency is inconclusive [inhibitor, partial curve, poor fit].

For `Cc1ccc(C(=O)c2ccccc2C(=O)OCC(=O)Nc2cccc([N+](=O)[O-])c2)cc1`, which Potency is on record?
The Potency was inconclusive [inhibitor, single point].

For `CCOC(=O)Cc1cnc(NC(=O)Cn2nnc(-c3ccc(OCC)cc3)n2)s1`, which Potency is on record?
Its Potency is inconclusive [inhibitor, single point].

Which Potency does the source give for `CCOc1ccccc1CN(CCc1ccc2c(c1)OCO2)Cc1cc(OC)c(OC)cc1OC` here?
Its Potency is inconclusive [inhibitor, single point].

With `Clc1ccc(CN2CCc3nc(Nc4ccc5c(c4)OCCO5)ncc3C2)cc1` as the compound, how does the Potency read?
The Potency was inconclusive [inhibitor, single point].

For `CCCN(CC1COc2ccccc2O1)C(=S)Nc1ccc(C)cc1` (stereo unspecified), which Potency is on record?
The Potency was active: 11.2 µM.

How did the Potency turn out when `C[C@@H]1CCCCO[C@H](CN(C)C(=O)Cc2ccccc2)[C@H](C)CN([C@@H](C)CO)C(=O)c2cc(NC(=O)Nc3ccc(F)cc3)ccc2O1` was run?
The Potency was inconclusive [inhibitor, single point].

For `COc1ccccc1CNc1nc(-c2ccco2)nn1S(=O)(=O)c1ccc(C)cc1`, which Potency is on record?
The Potency was inconclusive [inhibitor, single point].

How did the Potency turn out when `O=C(NC(=S)Nc1ccc(F)c([N+](=O)[O-])c1)c1ccccc1F` was run?
The Potency was inconclusive [inhibitor, single point].

For `c1ccc2c(-c3c[nH]c4ccccc34)c3ccccc3nc2c1`, which Potency is on record?
Its Potency is inconclusive [inhibitor, partial curve, poor fit].

How did the Potency turn out when `Cn1c(C(=O)OC(C(=O)NC(C)(C)C)c2cccnc2)cc2sccc21` (stereo unspecified) was run?
The Potency was inconclusive [inhibitor, single point].

Which Potency does the source give for `Cc1ccccc1C(=O)O/N=C(\N)c1ccc([N+](=O)[O-])cc1` here?
The Potency was inconclusive [inhibitor, single point].

`CC(NC(=O)CN1CCN(Cc2cccc(F)c2)CC1)c1ccccc1` (stereo unspecified) was tested. Which Potency did it give?
Its Potency is “inactive”.

`S=C(Nc1ccc(Br)cc1)NC1CCCC1` was tested. Which Potency did it give?
Its Potency is inconclusive [inhibitor, single point].

With `COC(=O)c1cc(Cl)ccc1NC(=O)Cn1c(C)cc(C)c(C#N)c1=O` as the compound, how does the Potency read?
Its Potency is “inactive”.

Which Potency does the source give for `COCC(C)Nc1ncnc2c1cnn2-c1ccc(Cl)cc1` (stereo unspecified) here?
The Potency was inconclusive [inhibitor, single point].

`CC(C)OC(=O)CC(=O)CSc1nc2c(cc1C#N)CCC2` was tested. Which Potency did it give?
The Potency was “inactive”.

With `COc1ccc(Cl)cc1NC(=O)CN1CCC(n2nnc3cc(C)ccc32)CC1` as the compound, how does the Potency read?
The Potency was inconclusive [inhibitor, full curve, poor fit].

For `CNc1nc(N/N=C/c2ccc([N+](=O)[O-])cc2)nc(Nc2ccccc2)n1`, which Potency is on record?
Its Potency is inconclusive [inhibitor, single point].

`CC1O[C@@H](OCC2O[C@@H](Oc3cc(O)c4c(c3)OC(c3ccc(O)cc3)CC4=O)[C@H](O)[C@@H](O)[C@@H]2O)[C@H](O)[C@H](O)[C@H]1O` (stereo partly specified) was tested. Which Potency did it give?
The Potency was “inactive”.

`CCC(O)(c1ccccc1)C(CN1CCOCC1)c1ccccc1` (stereo unspecified) was tested. Which Potency did it give?
The Potency was inconclusive [inhibitor, single point].

Which Potency does the source give for `Cc1ccc(NC(=O)CN2CCN(C3CCCCC3)C(=O)C2=O)cc1` here?
The Potency was “inactive”.

For `COC(=O)c1cc(=O)n(CCc2ccc(OC)c(OC)c2)c(=Nc2ccc(F)c(Cl)c2)s1`, which Potency is on record?
Its Potency is inconclusive [inhibitor, partial curve, poor fit].

`N#Cc1ccc(C23CC4(C2)[C@H](CN(P(=O)(c2ccccc2)c2ccccc2)[C@@H]4c2ccccc2)C3c2ccc(Cl)nc2)cc1` (stereo partly specified) was tested. Which Potency did it give?
Its Potency is inconclusive [inhibitor, partial curve, poor fit].

Which Potency does the source give for `O=C(NC1CCCc2ccccc21)c1ccc(S(=O)(=O)N2CCOCC2)cc1` (stereo unspecified) here?
Its Potency is “inactive”.

With `CC(=O)c1cc(-c2ccc(F)cc2)n(CCC(=O)NCc2ccc(C)cc2)c1C` as the compound, how does the Potency read?
Its Potency is “inactive”.

For `CC(C)NC(=O)C1CCCN(S(=O)(=O)c2cccc3nonc23)C1` (stereo unspecified), which Potency is on record?
Its Potency is “inactive”.

With `Cc1ccc(C(=O)NC2CCN(Cc3ccccc3)CC2)cc1S(=O)(=O)N1CCOCC1` as the compound, how does the Potency read?
The Potency was “inactive”.

With `COc1ccc(N2Cc3cccc(C(=O)N4CCOCC4)c3C2=O)cc1` as the compound, how does the Potency read?
The Potency was “inactive”.

Which Potency does the source give for `CN(C)CCCNc1ccc(-c2cc(Nc3cccc(Cl)c3)ncn2)cn1` here?
Its Potency is inconclusive [inhibitor, partial curve].

`Cc1c(Cl)cccc1NC(=O)CN1C(=O)CSc2ccc(S(=O)(=O)N3CCCC3)cc21` was tested. Which Potency did it give?
The Potency was “inactive”.

`CC(=O)c1ccc(N2CCN(C(=O)Cn3ncc4c3-c3ccccc3OC4)CC2)cc1` was tested. Which Potency did it give?
The Potency was “inactive”.

With `CCOC(=O)C1(Cc2ccccc2)CCN(Cc2cn[nH]c2-c2ccccc2)CC1` as the compound, how does the Potency read?
Its Potency is inconclusive [inhibitor, partial curve, poor fit].

With `Cc1ccc2nc(C)c(C(=O)NN=C3CCCCCC3)n2c1` as the compound, how does the Potency read?
The Potency was inconclusive [inhibitor, full curve, poor fit].

`O=C(Nc1ccc(Oc2ccccc2)cc1)C1CCN(S(=O)(=O)c2ccccc2)CC1` was tested. Which Potency did it give?
Its Potency is inconclusive [inhibitor, partial curve, poor fit].

`CCc1c(-c2ccc(Cl)cc2)ncn1Cc1cccc(-c2ccccc2)c1` was tested. Which Potency did it give?
The Potency was inconclusive [inhibitor, partial curve, poor fit].

With `CC(Cc1cccs1)NC(=S)Nc1ccccc1` (stereo unspecified) as the compound, how does the Potency read?
The Potency was inconclusive [inhibitor, partial curve, poor fit].

How did the Potency turn out when `CCOc1ccc(S(=O)(=O)n2c(C)nc3ccccc32)cc1` was run?
The Potency was inconclusive [inhibitor, partial curve, poor fit].

With `O=C(Nc1cccc(C(=O)N2CCN(c3ccc(F)cc3)CC2)c1)c1nsc2ccccc12` as the compound, how does the Potency read?
Its Potency is inconclusive [inhibitor, single point].

Source: PubChem BioAssay AID624417 (National Center for Advancing Translational Sciences (NCATS), 2012)
